Reference: article PMC4059916
Results are given in words; binding and its absence hold for the method and conditions named. Some results given as binding are weak or reduced against the parent protein; the word gives no strength. For part of these data: Tags and fused reporters may be left off the sequences shown.

Legend:
[1] = target: T1, VARP451-640His6 (first ankyrin repeat domain, ANKRD1), wild type (human) (UniProt Q96NW4); assay: crystal structure; sitting drop vapor diffusion at 18°C, PEG 3350, 200 mM sodium citrate pH 8.0; molecular replacement; both purified
T1 sequence: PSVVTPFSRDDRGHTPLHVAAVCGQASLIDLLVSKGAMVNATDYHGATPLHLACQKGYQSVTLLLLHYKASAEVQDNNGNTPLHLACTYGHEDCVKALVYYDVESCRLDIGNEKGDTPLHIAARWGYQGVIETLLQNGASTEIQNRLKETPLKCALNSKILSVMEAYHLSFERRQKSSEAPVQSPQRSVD

[2] = target: VARP ANKRD1 (451-640):Rab32(Q85L) 1:1 heterodimer (UniProt Q96NW4); assay: SEC-MALS; size exclusion chromatography with multiangle light scattering, data not shown; both purified
[3] = target: VARP ANKRD1 (451-640):Rab32(Q85L) 1:1 heterodimer (UniProt Q96NW4); assay: crystal structure; sitting drop vapor diffusion at 18°C, PEG 3350, 200 mM sodium citrate pH 8.0; molecular replacement; both purified
[4] = target: VARP ANKRD1 (451-640):Rab32(Q85L) 1:1 heterodimer (UniProt Q96NW4); assay: SEC; analytical gel filtration of the VARP ANKRD1:Rab32 complex at different concentrations; both purified
[5] = target: T2, GSTRab32(Q85L) (UniProt Q13637); assay: pull-down; GSTRab32(Q85L) or GST as bait on GSH-sepharose, VARP451-640His6 as prey; 25-50 μg bait, 300 μg prey in 500 μl; 5 mM MgCl2, 0.5 mM TCEP, 100 μM matching nucleotide; 1 hr at 4°C; washes with 1% NP40; Coomassie and anti-His probe blot; both purified
T2 sequence: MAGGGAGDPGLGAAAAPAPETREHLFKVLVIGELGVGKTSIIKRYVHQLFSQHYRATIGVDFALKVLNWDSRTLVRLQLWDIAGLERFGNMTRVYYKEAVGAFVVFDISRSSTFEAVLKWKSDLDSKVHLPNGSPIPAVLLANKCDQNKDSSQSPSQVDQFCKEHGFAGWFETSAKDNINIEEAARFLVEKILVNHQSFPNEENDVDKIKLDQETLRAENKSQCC

[6] = target: T3, VARP451-640His6 L513D (human) (UniProt Q96NW4); assay: ITC; Nano ITC; VARP constructs at 60 μM in the cell at 4°C, Rab constructs at 300 μM titrated, 24 injections of 2 μl; 50 mM HEPES pH 7.4, 200 mM NaCl, 5 mM MgCl2, 1 mM TCEP; both purified
T3 sequence: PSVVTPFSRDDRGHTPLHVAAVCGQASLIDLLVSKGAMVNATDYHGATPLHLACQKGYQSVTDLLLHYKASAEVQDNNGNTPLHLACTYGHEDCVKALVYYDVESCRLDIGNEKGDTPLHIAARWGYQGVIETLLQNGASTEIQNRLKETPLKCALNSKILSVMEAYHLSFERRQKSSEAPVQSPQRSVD

[7] = target: T4, VARP451-640His6 Q509A/Y550A (human) (UniProt Q96NW4); assay: condition: Rab constructs at 300 μM titrated into VARP constructs at 60 μM; ITC; Nano ITC; VARP constructs at 60 μM in the cell at 4°C, Rab constructs at 300 μM titrated, 24 injections of 2 μl; 50 mM HEPES pH 7.4, 200 mM NaCl, 5 mM MgCl2, 1 mM TCEP; both purified
T4 sequence: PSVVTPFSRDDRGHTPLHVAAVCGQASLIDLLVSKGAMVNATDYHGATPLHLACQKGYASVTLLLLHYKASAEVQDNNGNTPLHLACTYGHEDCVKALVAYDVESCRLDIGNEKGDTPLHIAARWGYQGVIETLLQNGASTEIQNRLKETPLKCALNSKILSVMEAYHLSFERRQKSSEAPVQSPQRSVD

B1: SeMet-Rab38 (Q69L) (enzyme, UniProt P57729 1-211)
chain: MQAPHKEHLYKLLVIGDLGVGKTSIIKRYVHQNFSSHYRATIGVDFALKVLHWDPETVVRLQLWDIAGLERFGNMTRVYYREAMGAFIVFDVTRPATFEAVAKWKNDLDSKLSLPNGKPVSVVLLANKCDQGKDVLMNNGLKMDQFCKEHGFVGWFETSAKENINIDEASRCLVKHILANECDLMESIEPDVVKPHLTSTKVASCSGCAKS
modifications: selenomethionine (SeMet protein)
- binding [1]: binds

B2: VARP ANKRD1 (451-640):Rab32(Q85L) 1:1 heterodimer (complex, UniProt Q96NW4 451-640; Q13637 1-225)
chain 1: PSVVTPFSRDDRGHTPLHVAAVCGQASLIDLLVSKGAMVNATDYHGATPLHLACQKGYQSVTLLLLHYKASAEVQDNNGNTPLHLACTYGHEDCVKALVYYDVESCRLDIGNEKGDTPLHIAARWGYQGVIETLLQNGASTEIQNRLKETPLKCALNSKILSVMEAYHLSFERRQKSSEAPVQSPQRSVD
chain 2: MAGGGAGDPGLGAAAAPAPETREHLFKVLVIGELGVGKTSIIKRYVHQLFSQHYRATIGVDFALKVLNWDSRTLVRLQLWDIAGLERFGNMTRVYYKEAVGAFVVFDISRSSTFEAVLKWKSDLDSKVHLPNGSPIPAVLLANKCDQNKDSSQSPSQVDQFCKEHGFAGWFETSAKDNINIEEAARFLVEKILVNHQSFPNEENDVDKIKLDQETLRAENKSQCC
- binding [2]: binds
- binding [3]: binds
- binding [4]: binds

B3: VARP451-640His6 L513D (domain or fragment, UniProt Q96NW4 451-640)
chain: PSVVTPFSRDDRGHTPLHVAAVCGQASLIDLLVSKGAMVNATDYHGATPLHLACQKGYQSVTDLLLHYKASAEVQDNNGNTPLHLACTYGHEDCVKALVYYDVESCRLDIGNEKGDTPLHIAARWGYQGVIETLLQNGASTEIQNRLKETPLKCALNSKILSVMEAYHLSFERRQKSSEAPVQSPQRSVD
- binding [5]: no binding (tested: 300 μg prey protein in 500 μl)

B4: VARP451-640His6 L513D/K546D (domain or fragment, UniProt Q96NW4 451-640)
chain: PSVVTPFSRDDRGHTPLHVAAVCGQASLIDLLVSKGAMVNATDYHGATPLHLACQKGYQSVTDLLLHYKASAEVQDNNGNTPLHLACTYGHEDCVDALVYYDVESCRLDIGNEKGDTPLHIAARWGYQGVIETLLQNGASTEIQNRLKETPLKCALNSKILSVMEAYHLSFERRQKSSEAPVQSPQRSVD
- binding [5]: no binding (tested: 300 μg prey protein in 500 μl)

B5: VARP451-640His6 Q509A/Y550A (domain or fragment, UniProt Q96NW4 451-640)
chain: PSVVTPFSRDDRGHTPLHVAAVCGQASLIDLLVSKGAMVNATDYHGATPLHLACQKGYASVTLLLLHYKASAEVQDNNGNTPLHLACTYGHEDCVKALVAYDVESCRLDIGNEKGDTPLHIAARWGYQGVIETLLQNGASTEIQNRLKETPLKCALNSKILSVMEAYHLSFERRQKSSEAPVQSPQRSVD
- binding [5]: no binding (tested: 300 μg prey protein in 500 μl)

B6: Rab32 1-225 (Q85L), GTP hydrolysis-defective mutant, GST removed (enzyme, UniProt Q13637 1-225)
chain: MAGGGAGDPGLGAAAAPAPETREHLFKVLVIGELGVGKTSIIKRYVHQLFSQHYRATIGVDFALKVLNWDSRTLVRLQLWDIAGLERFGNMTRVYYKEAVGAFVVFDISRSSTFEAVLKWKSDLDSKVHLPNGSPIPAVLLANKCDQNKDSSQSPSQVDQFCKEHGFAGWFETSAKDNINIEEAARFLVEKILVNHQSFPNEENDVDKIKLDQETLRAENKSQCC
- binding [6]: no binding (tested: KD > 300 μM)
- binding [7]: no binding
